# In the RNAGym collection of RNA variant scans (doi:10.7554/elife.90254):
# Read counts are not given, so values of variants with three or more changes are uncertain.
# B1: LINE1-mini (parent)
# chain: GGCAGAGCUCAACACAGCGUGGCAAAGUGGCUGUGGCUAGACUGCC
# Variants of: B1
# Assay: self-cleavage, relative activity (ratio to wild type); higher = more cleavage; in vitro, sequencing; the parent is a self-cleaving ribozyme
row,Variant,self-cleavage
1,G7U C23A U32C C42U,0.09
2,G7C U9A A12C C23A,0.02
3,G7U A16C C31G,0
4,G7U C18U A25C U38A C42G,0.05
5,G7U C10A C23A,0.01
6,G7U G17A U20A,0.01
7,G7U A16G G27C,0.06
8,G7C U9G G22A A41U,0.01
9,G7U A12C G21U G30A U38G,0.01
10,G7U G19A G33U G36A,0.16
11,G7U A11C U38C,0.04
12,G7U C10U A11U C23A U34C C37A,0.01
13,G7U C8A U28C G36U,0.13
14,G7U A12G C23A,0.01
15,G7U A14U A16C U28C C31U C37A,0.02
16,G7U C8A G33A,0.39
17,G7U G19U U20C,0.08
18,G7U C18A G27U,0.06
19,G7U A24G C31A,0.02
20,G7U G17C C18U,0.25
21,G7U G27A U38G,0.01

row,Variant,self-cleavage
1,G7U C13U G27U G33C C37U,0.02
2,G7U C13A A26C,0.08
3,G7U C31G G36C A39C,0.02
4,G7U A11U G19A A39U,0.08
5,G7U C10U A11G A12U G44A,0.01
6,G7U G21A C23A U34G C45A,0.09
7,G7U A26U C31A,0.05
8,G7U A26U C31G,0.05
9,G7U C15U C18G G29A C31U,0.11
10,G7U C8A C13A C42G C46U,0.91
11,G7U G17U U20A,0.18
12,G7U A12U G19U U38A A41U,0.05
13,G7U G27C G40C C42U,0.25
14,G7U A16U U20C G36U G40A C46A,0.02
15,G7U A25C U28A C31U,0.01
16,G7C U9G C10U A11G G19A U20A,0.01
17,G7U C8U U34G C45U,0.21
18,G7U A14U U20A A24C G33A C42A,0.13
19,G7U A24G G30C G44U,0.02
20,G7U C8U C10A U38A,0.02
21,G7U C8U A11U G33U,0.03

row,Variant,self-cleavage
1,G7U A12U G19C G22A U28A G33U,0.01
2,G7U G22C G35U A41C,0.12
3,G7U C8G C10G A26C C31G,0.02
4,G7U C15G A16U C18U G29U,0.06
5,G7U A11C C13G A14U,0.04
6,G7U C8U A39C C46A,0.28
7,G7U A12C C31U,0.03
8,G7U C13A U28G,0.02
9,G7U G17A C18G G36A U38A,0.27
10,G7U G19A G21U C37U,0.01
11,G7U G22C A24G U34G,0.05
12,G7U C23U G35C U38C,0.04
13,G7U C13G G17A U20A,0.15
14,G7U A16C C42U U43A,0.02
15,G7U C15U G21A A39C U43C,0.19
16,G7U A16C A26U,0.02
17,G7C U9A A11G A25U G44C,0.01
18,G7U G17U G35C,0.08
19,G7U G22A U28C G29C C31U G36A,0.03
20,G7U A11U G35U C46U,0.02
21,G7U A25C U38G,0

row,Variant,self-cleavage
1,G7U G21C G27C G33C,0.02
2,G7U A25U G36A,0.05
3,G7C U28G U43G C45G,0.02
4,G7U C8G C18U A26C,0.03
5,G7U G27A G35C A39G C46A,0.09
6,G7U C37U U38A,0.03
7,G7U A14U A39C,0.52
8,G7U A12G C23A G35A,0.01
9,G7U C8A U38A A39U,0.38
10,G7U A14C G44A,0.05
11,G7U C15A C23G A26C U32C C37A A39U,0.01
12,G7U C8G G17C A25C,0.13
13,G7C U28A C31U C42U,0.06
14,G7C U20A C46U,0.06
15,G7U G27A U43C,0.08
16,G7U C10U A14U C23G A24G G27C U28A G33C,0
17,G7U C10G C13U,0.03
18,G7U C10A G27U G29C,0.01
19,G7U G22U A24G,0.07
20,G7U C10A U28A,0.02
21,G7U C10G G35C C45U,0.03
